Literature values in patent US12622896B2, “Antiviral compounds, compositions and methods of use” (THE UNIVERSITY OF BRITISH COLUMBIA, priority 2019, dated 2026).

Test system: clinical isolate (11845 INI)
Conditions: cited from earlier work

SMILES: C[C@@H]1CCO[C@H]2Cn3cc(C(=O)NCc4ccc(F)cc4F)c(=O)c(O)c3C(=O)N12 [Dolutegravir]
- reduction of susceptibility by G140S and Q148H substitutions: up to 10 fold
